The values below come from paper PMC3903589, “The Receptor for Advanced Glycation End-Products (RAGE) Is Only Present in Mammals, and Belongs to a Family of Cell Adhesion Molecules (CAMs)” (PLoS ONE, 2014).

This data set deals with the molecule itself. Nature of the data set: SPR; His6-sRAGE immobilised on Ni-NTA chip (1500–2000 RU), sRAGE without His6-tag in the mobile phase; Biacore X; 20 mM HEPES, 150 mM NaCl, 0.005% P20, pH 7.6; 298 K; flow 10 µl/min. Background: Surface plasmon resonance follows binding to a sensor surface in real time, without labels.

B1: Human recombinant sRAGE ([…]) (domain or fragment)
chain: not shown
notes: receptor for advanced glycation endproducts (RAGE), human, soluble extracellular part, […], cloned into pET15b; the copy in the mobile phase had the His6-tag removed by thrombin; GenBank NM001136 is printed for the full-length human RAGE cDNA; also called soluble RAGE; receptor for advanced glycation endproducts; source: E. coli BL21(DE3) Origami B, purified (Ni-Sepharose, Superdex 75; MonoS …)
As a reminder, the Kd is the equilibrium constant for the complex coming apart. On to B1, for which the dissociation constant (Kd) came out at 470 ± 70 nM.
